Screen size: about 310,000 compounds; about 2,200 (0.71%) showed an effect of 50% or more. Effects have a minus sign here. This is one part of the list.
target: human ether-à-go-go-related gene (hERG) potassium channel (human, UniProt Q12809); test: primary screen, population patch clamp on CHO cells stably expressing hERG
Sequence (Q12809 whole entry, looked up): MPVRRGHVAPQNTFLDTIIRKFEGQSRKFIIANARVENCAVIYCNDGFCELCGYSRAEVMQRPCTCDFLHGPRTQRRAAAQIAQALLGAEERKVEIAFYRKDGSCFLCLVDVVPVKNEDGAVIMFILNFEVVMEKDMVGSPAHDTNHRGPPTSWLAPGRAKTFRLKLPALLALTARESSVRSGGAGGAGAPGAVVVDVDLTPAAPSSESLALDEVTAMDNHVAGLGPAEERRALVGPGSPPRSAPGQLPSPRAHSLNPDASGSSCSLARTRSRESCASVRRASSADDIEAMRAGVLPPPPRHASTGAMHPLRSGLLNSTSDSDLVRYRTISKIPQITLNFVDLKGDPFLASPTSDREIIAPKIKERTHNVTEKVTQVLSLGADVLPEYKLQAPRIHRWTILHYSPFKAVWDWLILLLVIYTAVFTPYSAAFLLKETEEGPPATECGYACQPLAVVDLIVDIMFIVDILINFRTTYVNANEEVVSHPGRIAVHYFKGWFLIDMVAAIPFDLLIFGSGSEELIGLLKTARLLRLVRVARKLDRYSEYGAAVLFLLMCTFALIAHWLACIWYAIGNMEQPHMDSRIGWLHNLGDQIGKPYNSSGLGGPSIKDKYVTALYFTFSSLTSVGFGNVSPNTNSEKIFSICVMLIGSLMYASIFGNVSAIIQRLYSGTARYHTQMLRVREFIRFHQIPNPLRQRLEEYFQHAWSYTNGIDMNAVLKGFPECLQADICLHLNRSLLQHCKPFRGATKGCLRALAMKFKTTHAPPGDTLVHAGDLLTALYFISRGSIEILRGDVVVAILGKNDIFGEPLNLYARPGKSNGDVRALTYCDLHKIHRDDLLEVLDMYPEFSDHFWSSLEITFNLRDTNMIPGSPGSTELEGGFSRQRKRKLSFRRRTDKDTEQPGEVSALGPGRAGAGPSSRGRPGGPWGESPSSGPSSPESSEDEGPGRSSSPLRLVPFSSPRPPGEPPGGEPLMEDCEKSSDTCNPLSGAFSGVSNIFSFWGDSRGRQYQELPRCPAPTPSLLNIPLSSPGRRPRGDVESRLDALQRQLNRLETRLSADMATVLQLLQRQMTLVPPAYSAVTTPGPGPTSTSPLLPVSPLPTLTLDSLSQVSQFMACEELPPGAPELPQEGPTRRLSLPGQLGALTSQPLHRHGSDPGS

Structure (SMILES) | hERG current change (%, negative = inhibition) at 1uM
Cc1cccc(C(=O)NNS(=O)(=O)c2ccc(F)cc2)c1O | 11.4%
O=C(/C=C/c1ccc([N+](=O)[O-])cc1)NCc1cccnc1 | -14.4%
O=C(Nc1ccc(NC(=O)c2ccco2)nc1)c1cccnc1 | 6.22%
COCC(=O)N(Cc1cc2cc(C)ccc2[nH]c1=O)c1ccccc1 | 12.3%
Cc1ccc(NC(=S)NC(=O)C2CC2)c(C)c1 | 20%
CC(=O)Nc1ccc(C(=O)CSc2nnnn2C)cc1 | 14%
CCOc1ccc(NC(=O)c2cccc3c2C(=O)N(CC2CCCO2)C3)cc1 (centres unmarked) | 8.11%
O=C(C1CCCN(S(=O)(=O)c2ccc(F)cc2)C1)N1CCCCCC1 (centres unmarked) | -3.8%
Cc1cccc(NS(=O)(=O)c2cc([N+](=O)[O-])ccc2C)n1 | 10.5%
Cc1c(C(=O)N(C)c2ccc(Cl)cc2)cnn1-c1ccccc1 | 16.5%
COC(=O)c1cnc(N2CCCN(S(=O)(=O)c3ccc(C(F)(F)F)cc3)CC2)nc1C(F)(F)F | 13.7%
Cc1oc2c(CN3CCCC3)c(O)ccc2c(=O)c1-c1ccc(Cl)cc1 | 8.71%
COc1ccc(Cc2n[nH]c(=S)n2Cc2ccccc2)cc1Cl | 4.75%
O=C(N/N=C/c1ccsc1)c1cc(-c2ccncc2)nc2ccccc12 | 10.7%
CCC(C(=O)O)n1cnc2scc(-c3ccc(C)c(C)c3)c2c1=O (centres unmarked) | 15.9%
Cc1c(C)n(C)c2ccc(C(=O)NCc3cccs3)cc12 | -2.45%
COc1ccccc1CNC(=O)C1CC(c2c(Cl)cccc2Cl)=NO1 (centres unmarked) | 10.7%
CCCC(=O)N(CCN1CCOCC1)c1nc2c(C)ccc(C)c2s1.Cl | -8.8%
CC(=O)CC1(O)C(=O)N(CN2CCN(c3ccccc3)CC2)c2ccccc21 (centres unmarked) | 15.8%
COc1ccccc1CNC(=O)CCS(=O)(=O)c1cccc2nonc12 | 12.2%
COc1ccc(S(=O)(=O)Nc2cc3c4c(c2)CC(=O)N4CCC3)cc1 | -6.19%
COCc1cc(CNC(=O)C2CCC(=O)N(Cc3ccccc3F)C2)[nH]n1 (centres unmarked) | 14.6%
Cc1ccc(NS(=O)(=O)c2c(C(=O)N3CCCCCC3)c(C)n(C)c2C)c(Cl)c1 | 7.94%

Structure (SMILES) | hERG current change (%, negative = inhibition) at 1uM
COc1ccc(C2c3ccc4ccccc4c3Oc3ncn(CCCO)c(=N)c32)cc1 (centres unmarked) | -40.6%
Cc1cc(C)n(-c2ccc(Cl)c(C(=O)Nc3cc(C(F)(F)F)ccc3Cl)n2)n1 | 12.6%
Cc1ccc2nc(SCC(=O)N3CCC(Cc4ccccc4)CC3)nc(=O)n2c1 | -31.1%
CCOC(=O)CNC(=O)c1c2c(nc3ccccc13)CCCC2 | 14.8%
O=C(/C=C/c1ccc(Cl)cc1)NCCN1CCOCC1 | -0.648%
C[n+]1ccccc1/C=C/c1ccc2ncccc2c1.[I-] | 11.2%
Cn1c(Cn2c(=O)sc3ccccc32)nnc1SCC(=O)Nc1cccc(Cl)c1 | 6.8%
CCn1c(COc2ccc(=O)n(-c3ccccc3)n2)nnc1SC | 8.56%
CCN(CC(=O)NCc1cccs1)C(=O)c1cc(S(=O)(=O)N2CCOCC2)ccc1C | 3.23%
O=C(CCCn1c(=O)c2cccn2c2cccnc21)NCc1cccc(Br)c1 | -0.008%
O=C(COC(=O)C1C2CC3OC(=O)C1C3C2)Nc1ccc(F)cc1 (centres unmarked) | 11.2%
Nc1nn(-c2ccccc2)c(N)c1N=Nc1ccccc1F | -4.18%
Cn1cnnc1SCC(=O)NCc1cccc(C(F)(F)F)c1 | 24.1%
CC(CO)(CO)NC(=O)c1ccc(=O)[nH]n1 | 2.91%
S=C(NCCCN1CCOCC1)Nc1cccc(-c2nnc3n2CCCCC3)c1 | 2.32%
CC1=NN(C2=NS(=O)(=O)c3ccccc32)C(C)(O)C1 (centres unmarked) | -7.57%
Cc1ccc(NC(=O)C2(N(C(=O)Cn3nnnc3N)c3ccc(C)cc3)CCCCC2)cc1 | 13.7%
CCc1nnc(NC(=O)C2CCCN2C(=O)Nc2ccccc2OC)s1 (centres unmarked) | 12.9%
CCn1ncc(C2=NOC(C(=O)NCc3ccccc3)C2)c1C (centres unmarked) | -6.74%
CCSc1ccc(C(=O)NCC(=O)O)cc1 | 14.6%
Cc1nn(C)c(C)c1NC(=O)c1cnn2c(C(F)F)cc(-c3ccccc3)nc12 | 24.7%
COCCSc1ccccc1C(=O)NCc1ccc2c(c1)OCO2 | 5.84%
O=C(CN1CCN(c2ccccc2)CC1)Nc1ccc2c(c1)OCCO2 | 4.63%

Structure (SMILES) | hERG current change (%, negative = inhibition) at 1uM
O=C(CCNC(=O)c1ccc(Br)o1)NC1CCCC1 | 7.52%
COc1ccc(/C=N/N=C2\CC3CCC2(C)C3(C)C)cc1O (centres unmarked) | 6.57%
[O-][n+]1c2ccccc2c2n1CCN=C2c1ccc(Cl)cc1 | 15.2%
COc1ccc(S(=O)(=O)N2CCOCC2)cc1NC(=O)c1cccc(Cl)c1 | 6.86%
COCCNC(=O)C(c1ccc(C)o1)N(Cc1ccc(OC)cc1)C(=O)Cn1nnc2ccccc21 (centres unmarked) | 7.85%
Cc1[nH]c2ccccc2c1/C=C/c1nc2ccccc2c(=O)n1CCO | -7.67%
CC(C)c1ccc(O)c(C(=O)c2cnn(-c3ccccc3)c2)c1 | 16.6%
O=C(COc1cc(Cl)c(Cl)cc1Cl)NCCc1ccccn1 | 1.32%
CCCN(C(=O)c1ccc(OCC(C)C)cc1)c1c(N)n(Cc2ccccc2)c(=O)[nH]c1=O | 4.57%
O=C(NNC(=O)c1ccc(F)cc1F)c1ccc2c(c1)OCO2 | 12.7%
COc1ccc(N(CC(=O)N/N=C/c2ccccc2OC)S(=O)(=O)c2ccccc2)cc1 | 11.8%
O=C(c1cc2ccccc2s1)N1CCOCC1 | 7.64%
COc1ccc(S(=O)(=O)NCCSCc2ccco2)cc1OC | 9.19%
COc1cc(C(=O)NCc2cc(C)nc3ccccc23)cc(OC)c1OC | 4.26%
CC1CCN(C(=O)c2cc3ccccc3cc2O)CC1 | 2.72%
CC(=O)c1ccc(S(=O)(=O)NC2CC(=O)N(c3cccc(F)c3)C2)cc1 (centres unmarked) | 6.01%
C=CCNC(=O)/C(=C\c1cccc([N+](=O)[O-])c1)NC(=O)c1ccccc1 | -8.25%
CCCCNC(=S)Nc1ccccc1Cc1ccccc1 | 11.7%
CCOc1ccc(S(=O)(=O)N2CCN(C(=O)c3cccn3C)CC2)cc1 | -6.68%
Fc1ccc(NC(=S)Nc2ccccc2OC(F)F)cc1Cl | 18.7%
Cc1cc(C)n(CCCNCC(O)c2ccccc2)n1.O=C(O)C(=O)O (centres unmarked) | 9.17%
CCOn1c(SCC)nc2ccccc2c1=O | -0.23%
COc1cc(CNc2ccc3[nH]c(=O)[nH]c3c2)ccc1OCc1ccccc1Cl | 14.3%

Structure (SMILES) | hERG current change (%, negative = inhibition) at 1uM
CCCCN1C(=O)c2ccc(C(=O)Nc3c(N)n(CCCC)c(=O)n(C)c3=O)cc2C1=O | -20.3%
Oc1ccc(-c2sc(Nc3ccccc3)n[n+]2-c2ccc(F)cc2)cc1.[Cl-] | 9.65%
CC1CN(C(=O)COc2ccc3c(-c4ccccc4)cc(=O)oc3c2)CC(C)O1 (centres unmarked) | 10.8%
COc1ccc2c(c1)O[C@H](c1ccc3c(c1)OCO3)[C@@H](OC(=O)Nc1cc(OC)c(OC)c(OC)c1)C2=O | 13.9%
Cc1ccc(OCC(=O)Nc2nnn(C)n2)c(C)c1 | 9.57%
O=C(O)CSc1nnc(COc2cccc3cccnc23)n1-c1cccc(C(F)(F)F)c1 | 16.6%
Cc1cccc2cc(CN(Cc3ccco3)C(=O)c3ccncc3)c(=O)[nH]c12 | -3.19%
CC1CCN(C2(O)C(=O)Nc3ccc(Cl)cc32)CC1 (centres unmarked) | 15.4%
COC(=O)C1=C(N)N(c2ccccc2F)C2=C(C(=O)CC(C)(C)C2)C1c1ccc(OC)c(OC)c1 (centres unmarked) | 3.06%
CCOC(=O)c1sc2ncnc(N3CCN(C)CC3)c2c1C | 0.473%
CCOC(=O)c1cc(CC)sc1NC(=O)C1CC1 | 9.15%
O=C1CC(c2ccccc2)CC2=C1C=Nc1ccccc1N2 (centres unmarked) | -9.6%
COc1ccccc1-c1nc(C#N)c(N2CCN(Cc3ccccc3)CC2)o1 | 12.8%
C=CCn1cccc(C(=O)Nc2ccc(Cl)cc2)c1=O | 10%
Cc1ccc2c(C(=O)CN3CCCC3)c(C)[nH]c2c1 | 10.8%
N=C1C(c2nc3ccccc3[nH]2)=C(O)CN1c1ccc(F)cc1 | 1.91%
CC1(C)Cn2c(nc(=O)c3c2NCN(CCc2ccccc2)C3)S1 | 11.4%
NCc1cccc(CNc2ccc([N+](=O)[O-])cc2C(N)=O)c1 | 7.31%
CC(C)NC(=O)C1CCN(S(=O)(=O)c2ccc(N3CCCC3=O)cc2)CC1 | 21.4%
Nc1nonc1-c1nc2ccccc2n1CC(=O)NC1CCCC1 | 4.39%

Reference: publication PMC4336329 (PLoS ONE, 2015)
